By IC50 is meant the dose at which the fit gives 50% viability; a limit (>, <) means that the fit lies beyond the doses tested. AUC sums up the same curve from the lowest dose to the 256-fold higher top dose; values near 1 show little effect. The top dose, if marked as inferred, comes from the curve model; the source does not state it. Some results are limits rather than exact numbers.

Compound in the assay: COc1ncc(-c2ccc3nccc(-c4ccnnc4)c3c2)cc1NS(=O)(=O)c1ccc(F)cc1F [GSK2126458]
In words: Viability of human cancer cell lines after 72 h of drug (GDSC screen). To be noted: top dose inferred. The protocol: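 Human cancer cell lines in 384-well plates, medium with 10% serum, drug for 72 h over a 256-fold dose range (nine 2-fold or five 4-fold steps up to the top dose). Adherent lines were fixed and stained with the nucleic acid dye Syto60, suspension lines read with resazurin; signal relative to control wells, capped at 0 and 100%. One two-parameter sigmoid per drug and line, fitted in a mixed model over all curves with the slope shared within a line.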

As a reminder, the IC50 is the concentration that inhibits the measured activity by half. Consider “NCI-H1573 (lung adenocarcinoma, adherent, top dose 0.128 µM)”, for which the AUC turned out to be 0.82 and the IC50 came to 70.9 nM.

“NCI-H1581 (large cell lung carcinoma, semi-adherent, top dose 0.128 µM)”: the AUC was 0.857 and the IC50 was 91.1 nM.

For “NCI-H1623 (lung adenocarcinoma, adherent, top dose 0.128 µM)”, the AUC is 0.927 and the IC50 is above 128 nM.

As for “NCI-H1648 (lung adenocarcinoma, adherent, top dose 1.024 µM)”, the AUC came out at 0.18 and the IC50 came to 6.42 nM.

“NCI-H1651 (lung adenocarcinoma, adherent, top dose 0.128 µM)”: the AUC turned out to be 0.961 and the half-inhibitory concentration (IC50) is above 128 nM.

“NCI-H1666 (lung adenocarcinoma, semi-adherent, top dose 1.024 µM)”: the AUC came out at 0.829 and the IC50 was 724 nM.

With “NCI-H1688 (small cell lung carcinoma, adherent, top dose 0.128 µM)”, the AUC was 0.939 and the IC50 is above 128 nM.

With “NCI-H1693 (lung adenocarcinoma, adherent, top dose 1.024 µM)”, the AUC stood at 0.725 and the IC50 turned out to be 419 nM.

Regarding “NCI-H1694 (small cell lung carcinoma, suspension, top dose 0.128 µM)”, the AUC stood at 0.82 and the IC50 came to 73.1 nM.

As for “NCI-H1703 (lung adenocarcinoma, adherent, top dose 0.128 µM)”, the AUC was 0.545 and the 50% inhibitory concentration (IC50) worked out at 10.9 nM.

Consider “NCI-H1734 (lung adenocarcinoma, adherent, top dose 1.024 µM)”, for which the AUC turned out to be 0.82 and the half-maximal inhibitory concentration (IC50) was determined as 668 nM.

Regarding “NCI-H1755 (lung adenocarcinoma, adherent, top dose 0.128 µM)”, the AUC is 0.956 and the IC50 is above 128 nM.

As to “NCI-H1770 (non-small cell lung carcinoma, suspension, top dose 0.128 µM)”, the AUC amounted to 0.968 and the IC50 was above 128 nM.

In the case of “NCI-H1781 (lung adenocarcinoma, adherent, top dose 0.128 µM)”, the AUC worked out at 0.719 and the IC50 amounted to 33.4 nM.

For the cell line “NCI-H1792 (lung adenocarcinoma, adherent, top dose 0.128 µM)”, the AUC amounted to 0.638 and the half-inhibitory concentration (IC50) was found to be 18.5 nM.

In the case of “NCI-H1793 (lung adenocarcinoma, adherent, top dose 0.128 µM)”, the AUC turned out to be 0.724 and the IC50 stood at 45.6 nM.

On to “NCI-H1836 (small cell lung carcinoma, suspension, top dose 0.128 µM)”, for which the AUC came to 0.828 and the IC50 came to 89.6 nM.

For “NCI-H1838 (lung adenocarcinoma, adherent, top dose 0.128 µM)”, the AUC is 0.888 and the IC50 was above 128 nM.

On to “NCI-H1869 (lung squamous cell carcinoma, adherent, top dose 0.128 µM)”, for which the AUC stood at 0.802 and the IC50 stood at 72.8 nM.

For “NCI-H1876 (small cell lung carcinoma, adherent, top dose 0.128 µM)”, the AUC was found to be 0.574 and the IC50 is 12.8 nM.

Regarding “NCI-H1915 (large cell lung carcinoma, adherent, top dose 0.128 µM)”, the AUC came to 0.93 and the IC50 is above 128 nM.

“NCI-H1944 (lung adenocarcinoma, adherent, top dose 0.128 µM)”: the AUC was 0.626 and the IC50 was 18.2 nM.

As for “NCI-H1975 (lung adenocarcinoma, adherent, top dose 1.024 µM)”, the AUC was determined as 0.421 and the IC50 worked out at 37.6 nM.

“NCI-H1993 (lung adenocarcinoma, adherent, top dose 0.128 µM)”: the AUC is 0.831 and the IC50 was 120 nM.

Source of the values: the supplement of paper PMC4967469.
